Experimental data reported in paper PMC4336329 (PLoS ONE, 2015).
Screen size: about 310,000 compounds; about 14,000 (4.5%) showed an effect of 50% or more. The effect is printed as a negative number. The list shows a part of the results.

These compounds were tested against human ether-à-go-go-related gene (hERG) potassium channel (human, UniProt Q12809) (assay: primary screen, population patch clamp on CHO cells stably expressing hERG).
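Note: peak tail current of the secondary pulse compared with the same well before compound.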

human ether-à-go-go-related gene (hERG) potassium channel, sequence (Q12809 whole entry, looked up): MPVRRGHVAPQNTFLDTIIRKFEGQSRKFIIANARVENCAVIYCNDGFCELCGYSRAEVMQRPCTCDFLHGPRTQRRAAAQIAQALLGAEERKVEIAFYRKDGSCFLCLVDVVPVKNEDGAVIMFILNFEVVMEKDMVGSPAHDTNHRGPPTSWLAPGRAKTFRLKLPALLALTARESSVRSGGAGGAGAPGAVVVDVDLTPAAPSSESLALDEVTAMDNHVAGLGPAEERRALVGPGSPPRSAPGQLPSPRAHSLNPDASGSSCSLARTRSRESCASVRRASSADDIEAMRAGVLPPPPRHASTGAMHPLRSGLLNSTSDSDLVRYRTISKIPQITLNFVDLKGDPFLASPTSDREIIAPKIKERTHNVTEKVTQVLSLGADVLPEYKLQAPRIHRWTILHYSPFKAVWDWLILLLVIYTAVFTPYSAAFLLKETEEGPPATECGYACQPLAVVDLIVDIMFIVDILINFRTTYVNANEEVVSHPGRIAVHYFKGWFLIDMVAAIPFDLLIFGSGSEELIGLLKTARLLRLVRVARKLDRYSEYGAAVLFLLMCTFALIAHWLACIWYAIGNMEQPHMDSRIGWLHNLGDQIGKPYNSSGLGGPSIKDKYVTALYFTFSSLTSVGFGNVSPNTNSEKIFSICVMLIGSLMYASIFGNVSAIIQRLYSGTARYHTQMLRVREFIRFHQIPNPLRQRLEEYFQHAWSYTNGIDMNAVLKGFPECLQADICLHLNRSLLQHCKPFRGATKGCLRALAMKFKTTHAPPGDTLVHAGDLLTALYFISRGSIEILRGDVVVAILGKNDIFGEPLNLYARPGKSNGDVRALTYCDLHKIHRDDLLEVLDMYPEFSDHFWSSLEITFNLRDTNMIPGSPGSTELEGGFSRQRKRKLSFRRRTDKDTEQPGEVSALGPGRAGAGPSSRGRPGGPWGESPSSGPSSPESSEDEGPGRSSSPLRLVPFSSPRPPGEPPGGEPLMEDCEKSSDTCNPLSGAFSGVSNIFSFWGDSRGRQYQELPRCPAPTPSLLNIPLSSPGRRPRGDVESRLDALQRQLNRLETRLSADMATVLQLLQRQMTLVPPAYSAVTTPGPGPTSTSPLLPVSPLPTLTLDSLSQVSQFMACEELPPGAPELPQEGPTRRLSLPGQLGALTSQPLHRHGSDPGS

| Compound | hERG current change (%, negative = inhibition) at 10uM |
| --- | --- |
| CN(C)CCOCCP(=O)(c1ccccc1)c1ccccc1 | -7.21% |
| CC1SCC(NC(=O)c2cccc(Cl)c2)CS1 (centres unmarked) | -33.8% |
| O=C(CCn1nc(-c2ccccc2)ccc1=O)NCCCN1CCCCCC1 | -73% |
| Cc1cc(-c2n[nH]c(=S)n2/N=C/C(Cl)=C/c2ccccc2)n[nH]1 | 23.7% |
| Cc1cc(C)n(-c2ccc(C(F)(F)F)cc2[N+](=O)[O-])n1 | 1.78% |
| Cc1cc(NC(=O)CSc2nc3c(cc2C#N)CCCC3)no1 | -8.83% |
| COc1ccc2c(c1OC)C(=O)N1c3ccccc3SC21 (centres unmarked) | 11.7% |
| CNC(=O)C(=O)NCCN1CCN(C(=O)c2ccc([N+](=O)[O-])cc2)CC1 | -39.6% |
| Cc1cc(C)n(-c2nnc(C)n2/N=C/c2ccco2)n1 | 9.07% |
| Nc1cccc(-c2cc(-c3ccccc3)nc(-c3cccc(N)c3)n2)c1 | -0.0374% |
| CCCCn1nc2cc(C(=O)N(CC)c3ccc(OC)cc3)ccc2c1OCC | -4.26% |
| Cc1cc(C)c(NC(=O)Nc2ccccc2)c(C)n1 | 23.4% |
| NC(=O)c1cc(-c2ccccc2)nc(N2CCCCCC2)n1 | 21.7% |
| COc1cccc(-c2nc(=S)c3c(o2)CCCC3)c1 | 26.1% |
| CNC(=O)OCCSCCS(=O)(=O)c1ccc(Cl)cc1 | -8.87% |
| O=C(N/N=C1\CCCc2oc(C(=O)O)cc21)c1ccccc1 | -46.3% |
| O=C(CN1CCc2ccccc2C1)Nc1cccc(S(=O)(=O)N2CCOCC2)c1 | -17% |
| Clc1ccc(CSc2nnc(-c3ccncc3)o2)c(Cl)c1 | 0.528% |
| Cn1nc(-c2ccccc2)c(-c2nc(-c3ccccc3Cl)no2)c1Cl | 12.6% |
| Nc1nonc1-n1nnc(C(=O)N/N=C/c2ccc(OCc3cccc(Cl)c3)cc2)c1CN1CCCCC1 | 11.9% |
| CC(C)(C)C(=O)Cn1ncc(N2CCOCC2)c(Br)c1=O | -0.203% |
| CCOC(=O)C1(C)NC(c2ccc(OC)cc2OC)C2C(=O)N(CC)C(=O)C21 (centres unmarked) | 43.4% |
| Cc1c(F)cccc1NS(=O)(=O)c1ccccc1C#N | -2.21% |

| Compound | hERG current change (%, negative = inhibition) at 10uM |
| --- | --- |
| Cc1ccc(NC(=O)CCc2c(C)[nH]c(=O)c(C#N)c2C)cc1 | 6.35% |
| CC(C)n1cnc2c(=S)nc[nH]c21 | 18.9% |
| CC12CCC(C(=O)N(CCCCN3CCN(Cc4ccccc4)CC3)C1=O)C2(C)C.Cl (centres unmarked) | -45.2% |
| Cc1cc(C)c2nc3c(c(C(=O)O)c2c1)CCC3 | 10.4% |
| CC(=O)NC(CCS(C)(=O)=O)C(=O)Nc1cccc(C)c1 (centres unmarked) | 1.27% |
| COc1ccc(NC(=O)c2cc(C)on2)cc1 | 9.74% |
| COc1cccc(C(C)NC(=O)Nc2ccccc2Cl)c1 (centres unmarked) | -5.63% |
| COc1ccc(/C(C)=C(\C#N)C(=O)OC(C)C)cc1OC | -3.32% |
| COCCCNCC(O)C(F)(F)F (centres unmarked) | 10.8% |
| CC(=O)c1cccc(N(C(=O)c2ccccn2)C(C(=O)NC2CCCCC2)c2ccccc2)c1 (centres unmarked) | 5.77% |
| CCOc1ccc(OCCC(=O)N(CC)CC(=O)Nc2ccccc2C(F)(F)F)cc1 | -22.5% |
| COc1ccccc1C(=O)Nc1ccnn1C1CCN(Cc2ccc3nonc3c2)CC1 | -72.1% |
| CCOc1ccc(Cl)cc1S(=O)(=O)n1cnc2cc(C)c(C)cc21 | -1.31% |
| CCC1CCCCN1C(=O)CSc1nc2ncccc2[nH]1 (centres unmarked) | 12.3% |
| C/C(=N\N=C1/NC(=O)C(C)S1)c1ccco1 (centres unmarked) | 22.5% |
| CCCOc1ccc(N2C(=O)CC(N3CCC(c4nncn4CC)CC3)C2=O)cc1 (centres unmarked) | -1.14% |
| Cc1ccc(C)c(-c2nnc(OCC(=O)Nc3cc(C)on3)c3ccccc23)c1 | -25.2% |
| CCSc1ccccc1C(=O)Nc1cccc(OC)c1 | -3.62% |
| CNC(=S)NNC(=O)COc1ccc(C)c(C)c1 | 14% |
| Cc1ccc(S(=O)(=O)n2c([N+](=O)[O-])cnc2C)c(C)c1C | 41.4% |
| Cc1sc2ncnc(N3CCC(C(=O)Nc4ccc(Br)cc4Br)CC3)c2c1C | -7.07% |
| CCc1nnc(NC(=O)CSc2nnc3c4ccccc4n(C)c3n2)s1 | 3.8% |
| Cc1cccc(-c2noc(CCC(=O)NCc3ccco3)n2)c1 | -4.37% |

| Compound | hERG current change (%, negative = inhibition) at 10uM |
| --- | --- |
| C/C(=N\NC(=O)c1c(Cl)c(C)nn1C)c1cccc(NC(=O)COc2ccccc2)c1 | 2.21% |
| COc1cc([N+](=O)[O-])ccc1NC(=O)CCCOc1cccc(C)c1C | -3.24% |
| COc1ccccc1N1CCN(C(=O)CCCNC(=O)Cn2cnc3sc(C)c(C)c3c2=O)CC1 | -3.03% |
| [O-]/[N+](=C/c1ccccc1)c1ccccc1 | 15.1% |
| CN(Cc1c(C(=O)N/N=C/c2ccc(O)cc2)nnn1-c1nonc1N)c1ccccc1 | 20.6% |
| O=C(CC1SC(N2CCOCC2)=NC1=O)Nc1ccccc1Cl (centres unmarked) | 16.2% |
| COc1cc(C(C)=O)ccc1COc1ccc(C(=O)OC(C)C(=O)NC(N)=O)cc1OC (centres unmarked) | 0.338% |
| CC1(C)Oc2ccc(C(=O)NC3CCCC3)cc2N(CC(=O)NC2CCCCC2)C1=O | 9.12% |
| O=C(O)c1ccc(CSc2nnc(-c3ccccc3Br)o2)cc1 | 10.5% |
| COc1cccc(C(=S)N2CCCC2)c1OC | 14.9% |
| Cc1cc(C)n(CCN(C)C(=O)CCc2nnc(CCC3CCCCC3)o2)n1 | -4.29% |
| N#Cc1cccnc1N1CCN(C(=O)c2cccc3c2C(=O)c2ccc(Cl)cc2S3(=O)=O)CC1 | -56.6% |
| O=C(Cc1ccccc1)Nc1ccc(-c2nnc(-c3ccco3)o2)cc1 | -2.62% |
| Cc1ccc(S(=O)(=O)Nc2cc3c(C(=O)Nc4ccccc4)c(C)oc3c3ccccc23)cc1 | 4.88% |
| Cc1ccc(OCC(=O)Nc2ccccc2[N+](=O)[O-])c(Br)c1 | 38.3% |
| O=C(O)COc1ccccc1-c1ccccc1 | 18.2% |
| C=C[C@@H]1c2cc(C)ccc2N(S(=O)(=O)c2ccc(C)cc2)[C@H](c2ccc(OC(C)=O)cc2)C1(C#N)C#N | 11.7% |
| Cn1nc(-c2ccccc2)c(C(O)c2ccccc2C(F)(F)F)c1Cl (centres unmarked) | 26.3% |
| COc1cccc(C(C(=O)NC2CCCCC2)N(C(=O)c2ccco2)c2ccccc2OC)c1 (centres unmarked) | -42% |
| Cn1cc(CNCC2CCCO2)c(-c2ccc(Oc3ccccc3)cc2)n1 (centres unmarked) | -30.1% |
| CC(C)OC(=O)c1c(NC(=O)c2ccco2)sc2c1CCCC2 | 0.68% |
| Cc1ccc(Nc2nnc(C(C)(C)C)c(=O)n2N)cc1 | 1.06% |
| COc1cc2[nH]c(=S)nc(NC3CCCCCC3)c2cc1OC | 2.9% |

| Compound | hERG current change (%, negative = inhibition) at 10uM |
| --- | --- |
| CCOC(=O)C(C(=O)OCC)C(C#N)c1ccccc1 (centres unmarked) | 0.0132% |
| CC/C(O)=C1\C(=O)CC(C)(C)CC1=Nc1ccccc1C | 1.26% |
| Cc1cc(-c2n[nH]c(=S)n2-c2ccc(C)c(C)c2)no1 | 7.28% |
| Cn1cc([N+](=O)[O-])c(C(=O)N/N=C\c2c[nH]c3ccccc23)n1 | -2.14% |
| COc1ccc(CNC(=O)CN(C)S(=O)(=O)c2ccccc2)cc1 | -12.3% |
| COc1ccc(C(=O)C2CCCN(Cc3cc(Cl)ccc3O)C2)c(OC)c1 (centres unmarked) | -26.8% |
| Cc1c(NC(=O)CSc2ccccn2)c(=O)n(-c2ccccc2)n1C | 7.95% |
| COC(=O)c1cc2sc(Cl)cc2n1CC(=O)NCC1CCCO1 (centres unmarked) | -12.8% |
| CCc1ccc(S(=O)(=O)Nc2cc3c(cc2N2CCCCC2)n(C)c(=O)c(=O)n3C)cc1 | -85.6% |
| Cc1cccc(NC(=O)C2(C)CC3c4ccccc4C2c2ccccc23)c1 (centres unmarked) | 9.5% |
| COC(=O)Cc1c(C)c2ccc(OC(=O)c3ccccc3)cc2oc1=O | -8.51% |
| COc1cc(/C=C2\SC(=Nc3ccccc3)N(Cc3ccco3)C2=O)ccc1OC(C)C(=O)O (centres unmarked) | 4.06% |
| Cc1cc(=O)[nH]c(SCCCOc2ccc3c(c2)CCC3)n1 | -2.72% |
| COc1cccc(N(C(=O)c2ccco2)C(C(=O)NC2CCCC2)c2ccc(N(C)C)cc2)c1 (centres unmarked) | -9.47% |
| COc1cccc(CNc2cc(C)ccn2)c1O | 0.891% |
| CC1CN(C(=S)Nc2ccc(Cl)cc2)CC(C)O1 (centres unmarked) | 10.5% |
| COc1cccc(CN(C)Cc2cc(=O)oc3cc(O)c(Cl)cc23)c1.O=C(O)C(=O)O | 6.61% |
| COc1ccc(CCN(Cc2nc(-c3ccccc3)no2)Cc2nc(-c3ccccc3)no2)cc1OC | -3.37% |
| CCOc1ccc(N2CC(C(=O)Nc3nnc(Cc4ccc(OC)c(OC)c4)s3)CC2=O)cc1 (centres unmarked) | -1.44% |
| Cc1nc2scc(-c3ccco3)c2c(=O)n1/N=C/N(C)C | -3.54% |
